# Source: the supplement of paper PMC8728848
# The other results are listed elsewhere or left out.
# B1: L-Selectin (Mus musculus), P18337 (protein)
# chain: MVFPWRCEGTYWGSRNILKLWVWTLLCCDFLIHHGTHCWTYHYSEKPMNWENARKFCKQNYTDLVAIQNKREIEYLENTLPKSPYYYWIGIRKIGKMWTWVGTNKTLTKEAENWGAGEPNNKKSKEDCVEIYIKRERDSGKWNDDACHKRKAALCYTASCQPGSCNGRGECVETINNHTCICDAGYYGPQCQYVVQCEPLEAPELGTMDCIHPLGNFSFQSKCAFNCSEGRELLGTAETQCGASGNWSSPEPICQVVQCEPLEAPELGTMDCIHPLGNFSFQSKCAFNCSEGRELLGTAETQCGASGNWSSPEPICQETNRSFSKIKEGDYNPLFIPVAVMVTAFSGLAFLIWLARRLKKGKKSQERMDDPY
# How the values were obtained:
# Assay in all cases: glycan array binding signal (z-score within array); higher = stronger binding
# Settings in all cases: glycan notation: IUPAC condensed, linker removed
# [1] = target: Fuc(a1-2)[GalNAc(a1-3)]Gal(b1-4)GlcNAc
# How it was run: (§1)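 From the Consortium for Functional Glycomics database, 3228 arrays were curated, keeping only those whose protein sequence was available. Binding is given as a within-array Z-score averaged across arrays sharing a protein sequence and across linkers. Negative Z-scores can be read as non-binding.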
# [2] = target: Fuc(a1-2)[GalNAc(a1-3)]Gal(b1-4)[Fuc(a1-3)]GlcNAc
# How it was run: as §1
# [3] = target: Fuc(a1-2)[GalNAc(a1-4)]Gal(b1-4)GlcNAc
# How it was run: as §1
# [4] = target: Fuc(a1-2)[GalNAc(b1-3)]Gal
# How it was run: as §1
# [5] = target: Fuc(a1-3)GlcNAc
# How it was run: as §1
# [6] = target: Fuc(a1-3)[Gal(b1-4)]Glc6S
# How it was run: as §1
# [7] = target: Fuc(a1-3)[Gal(b1-4)]GlcNAc
# How it was run: as §1
# [8] = target: Fuc(a1-3)[Gal(b1-4)]GlcNAc(b1-2)Man(a1-3)[Fuc(a1-3)[Gal(b1-4)]GlcNAc(b1-2)Man(a1-6)]Man(b1-4)GlcNAc(b1-4)GlcNAc
# How it was run: as §1
# [9] = target: Fuc(a1-3)[Gal(b1-4)]GlcNAc(b1-2)Man(a1-6)[Gal(b1-4)GlcNAc(b1-2)Man(a1-3)]Man(b1-4)GlcNAc(b1-4)GlcNAc
# How it was run: as §1
# [10] = target: Fuc(a1-3)[Gal(b1-4)]GlcNAc(b1-3)Gal(b1-3)[Fuc(a1-4)]GlcNAc
# How it was run: as §1
# [11] = target: Fuc(a1-3)[Gal(b1-4)]GlcNAc(b1-4)Gal(b1-4)[Fuc(a1-3)]GlcNAc
# How it was run: as §1
# [12] = target: Fuc(a1-3)[Gal(b1-4)]GlcNAc(b1-4)Gal(b1-4)[Fuc(a1-3)]GlcNAc(b1-4)Gal(b1-4)[Fuc(a1-3)]GlcNAc
# How it was run: as §1
# [13] = target: Fuc(a1-3)[Gal(b1-4)]GlcNAc6S
# How it was run: as §1
# [14] = target: Fuc(a1-3)[Gal3S(b1-4)]Glc6S
# How it was run: as §1
# [15] = target: Fuc(a1-3)[Gal3S(b1-4)]GlcNAc
# How it was run: as §1
# [16] = target: Fuc(a1-3)[Gal3S(b1-4)]GlcNAc6S
# How it was run: as §1
# [17] = target: Fuc(a1-3)[GalNAc(b1-4)]GlcNAc
# How it was run: as §1
# [18] = target: Fuc(a1-4)GlcNAc
# How it was run: as §1
# [19] = target: Fuc(b1-3)GlcNAc
# How it was run: as §1
# [20] = target: Gal(a1-2)Gal
# How it was run: as §1
# [21] = target: Gal(a1-3)Gal
# How it was run: as §1
# [22] = target: Gal(a1-3)Gal(b1-3)GlcNAc
# How it was run: as §1
# [23] = target: Gal(a1-3)Gal(b1-4)Glc
# How it was run: as §1
# [24] = target: Gal(a1-3)Gal(b1-4)GlcNAc
# How it was run: as §1
# [25] = target: Gal(a1-3)Gal(b1-4)[Fuc(a1-3)]GlcNAc
# How it was run: as §1
# [26] = target: Gal(a1-3)GalNAc
# How it was run: as §1
# [27] = target: Gal(a1-3)[Gal(a1-4)]Gal(b1-4)GlcNAc
# How it was run: as §1
# [28] = target: Gal(a1-4)Gal(b1-4)Glc
# How it was run: as §1
# [29] = target: Gal(a1-4)Gal(b1-4)GlcNAc
# How it was run: as §1
# [30] = target: Gal(a1-4)GlcNAc
# How it was run: as §1
# [31] = target: Gal(a1-6)Glc
# How it was run: as §1
# [32] = target: Gal(b1-2)Gal
# How it was run: as §1
# [33] = target: Gal(b1-3)Gal
# How it was run: as §1
# [34] = target: Gal(b1-3)Gal(b1-4)GlcNAc
# How it was run: as §1
# [35] = target: Gal(b1-3)GalNAc
# How it was run: as §1
# [36] = target: Gal(b1-3)GalNAc(b1-3)Gal(a1-4)Gal(b1-4)Glc
# How it was run: as §1
# [37] = target: Gal(b1-3)GalNAc(b1-4)Gal(b1-4)Glc
# How it was run: as §1
binder,measurement,setting,value
B1,glycan array binding signal (z-score),[1],-0.16
same,glycan array binding signal (z-score),[2],-0.294
same,glycan array binding signal (z-score),[3],-0.599
same,glycan array binding signal (z-score),[4],-0.546
same,glycan array binding signal (z-score),[5],-0.232
same,glycan array binding signal (z-score),[6],-0.1
same,glycan array binding signal (z-score),[7],0.162
same,glycan array binding signal (z-score),[8],-0.434
same,glycan array binding signal (z-score),[9],-0.638
same,glycan array binding signal (z-score),[10],-0.272
same,glycan array binding signal (z-score),[11],-0.219
same,glycan array binding signal (z-score),[12],-0.04
same,glycan array binding signal (z-score),[13],0.212
same,glycan array binding signal (z-score),[14],3.99
same,glycan array binding signal (z-score),[15],0.044
same,glycan array binding signal (z-score),[16],4.9
same,glycan array binding signal (z-score),[17],-0.454
same,glycan array binding signal (z-score),[18],-0.193
same,glycan array binding signal (z-score),[19],-0.381
same,glycan array binding signal (z-score),[20],-0.049
same,glycan array binding signal (z-score),[21],0.253
same,glycan array binding signal (z-score),[22],-0.538
same,glycan array binding signal (z-score),[23],-0.265
same,glycan array binding signal (z-score),[24],-0.445
same,glycan array binding signal (z-score),[25],0.01
same,glycan array binding signal (z-score),[26],-0.386
same,glycan array binding signal (z-score),[27],-0.377
same,glycan array binding signal (z-score),[28],-0.052
same,glycan array binding signal (z-score),[29],0.031
same,glycan array binding signal (z-score),[30],0.318
same,glycan array binding signal (z-score),[31],0.345
same,glycan array binding signal (z-score),[32],0.706
same,glycan array binding signal (z-score),[33],-0.366
same,glycan array binding signal (z-score),[34],-0.351
same,glycan array binding signal (z-score),[35],-0.396
same,glycan array binding signal (z-score),[36],0.112
same,glycan array binding signal (z-score),[37],-0.089
